For some of these results: At least one peptide structure holds a part that was inferred or is arguable (an end, a ring closure or a residue). For some of these results: For at least one compound, name, drawing or mass did not settle the structure. Some of these results come from one statement about several compounds together. Where no end group is shown, it is not given here.
Columns and labels:
[1] = target: T1, transferrin (Homo sapiens, UniProt P02787); assay: SPR characterization of TRF26 lead and point-mutant peptides against transferrin; type: binding; details: Table 13D, energetic additivity; read-out: Predicted Kd Range
From the text: In this example, a small library of ˜300 variant peptides was synthesized in 96-well format. […] The lead peptide (TRF26, see Table 6) was selected as a moderate-affinity binder of the target protein transferrin. The library of variant peptides contained all possible point mutations of the lead peptide using the following set of amino acids {M,A,V,P,L,I,G,W,Y,F,S,T,N,Q,K,R,H,D,E}.
Relative affinities/specificities of the lead peptide and point-mutants were characterized using SPR as follows:
Peptide sample preparation. Lyophilized peptides were individually diluted in 96-well plates to approximately equal concentration (1 mg/ml) in 1×PBST buffer pH 7.4. Peptide sample purity was determined by MALDI-MS analysis of the diluted peptide samples.
SPR gold substrate preparation. Gold substrates used for SPR analysis were first modified with a monolayer of cysteamine by immersing the substrate in a 10 mM cysteamine/EtOH solution for 1 hour, thereby exposing a layer of primary amines just above the gold surface. […]
Determination of target affinity using SPR. […] Sensorgrams were continuously recorded during the 2 minute prewash (to ensure baseline stability), 8 minute Transferrin sample recycle and post sample recycle wash.
Quantification of relative target affinities. […]

[2] = target: T2, pooled human transferrin (Homo sapiens, UniProt P02787); assay: High throughput SPR (Biacore A-100) of peptides on immobilized transferrin; type: binding; details: unpurified peptides, sensorgrams FIG. 60
T2 construct: purchased Sigma

[3] = target: TNF-α (Homo sapiens, UniProt P01375); assay: SPR (Biacore A100) of TNF1 lead and mutant peptides on captured TNF-α; type: binding; details: for Observed Kd Fold-Change Relative to Lead / Observed Binding ΔG: Table 13B; for Observed Binding ΔG: multiple mutants; for Kd: range predicted from energetic additivity; for Predicted Binding ΔG: sum of component binding free energies (mutational additivity); for Kd Fold-Change Relative to Lead / Binding ΔG: Table 13A; for Binding ΔG: lead and point-mutants; for Component Binding ΔG Contribution: point mutation contribution; for fold enhancement in SPR binding response relative to TNF1: screened at 50 μM peptide concentration
From the text: After lead identification, the next step in the AMPLI algorithm is characterization of point mutations in the lead heteropolymer. Using short peptides makes it chemically feasible to synthesize a significant fraction of the point-mutant space, which can then be screened for enhanced point mutations. For example, all possible point mutations in the 17 randomized positions using all 20 natural amino acids could be synthesized and screened within a single 384-well plate (323 total point-mutants). However, libraries containing all 20 natural amino acids are not required for affinity optimization of protein-protein interactions. […] Tyrosine (Y), alanine (A), aspartic acid (D) and serine (S) were selected because of their effectiveness in producing high affinity interactions when substituted into the complementary-determining regions (CDRs) of synthetic antibodies (Felouse, Proceedings of the National Academy of Sciences 101(34):12467, 2004), lysine (K) was selected to balance the charge in the substitution set, asparagine (N), valine (V) and tryptophan (W) were selected to span the hydropathicity range (Kyte J & Doolittle R F, Journal of Molecular Biology 157(1):105-132, 1982). […] This concentration was used to increase the high-end dynamic range for quantifying enhancing point mutations at the expense of low-end dynamic range for quantifying detrimental point mutations.
Point-mutant libraries were prepared in 96-well stock plates From the stock plate, peptides were diluted to 50 μM concentration in Biacore HBS-EP buffer (GE Healthcare, Piscataway, N.J.) containing 1 mg/ml carboxymethyl-dextran (Sigma-Aldrich, St. Louis, Mo.) to reduce non-specific binding to the CM-5 SPR chip surface. […] Spot 3 contained only immobilized neutravidin and served as a reference spot.
Using the prepared 96-well plates and Biacore A100 SPR instrument, four peptides were flowed separately, in parallel, through the four flow cells over all 4 TNF-α spots and the neutravidin reference spot, with a 60 second association phase and 300 second dissociation phase. SPR sensorgrams were recorded for each peptide response with all 4 TNF-α spots and the neutravidin reference spot across the four flow cells on the SPR chip. Surface regeneration was performed after every 12 injections in each flow cell with Biacore Glycine 2.5 regeneration solution (GE Healthcare, Piscataway, N.J.).
Purified point-mutant affinities were measured on the Biacore A100 using SPR equilibrium binding response across a series of peptide concentrations on an SPR chip with TNF-α captured as described above.
These sequences were synthesized and purified using standard solid-phase FMOC synthesis and HPLC purification.

[4] = target: T1, transferrin; assay: SPR analysis of peptide pairs for binding to distinct sites on immobilized transferrin
From the text: The transferrin target was immobilized on a Biacore T100 SPR chip, and candidate polypeptides were applied in 1:1 mixtures in pairs and response data obtained, in accordance with the methods described in Example 4 above. As illustrated in FIGS. 12A-D, upon flowing candidate polypeptides over the immobilized target, ideally one polypeptide applied alone would bind to a first binding site on the target and produce a first characteristic SPR response level (FIG. 12A), the other polypeptide would bind to a second, distinct binding site on the target, producing a second characteristic response level (FIG. 12B), and a mixture of the two polypeptides together (at the same concentrations as before) would produce a response level approximating the sum of the response levels produced by each polypeptide alone, as the polypeptides bind to distinct binding sites (FIG. 12C).

Sequence of TNF-α (P01375 77-233 limits assumed, species assumed): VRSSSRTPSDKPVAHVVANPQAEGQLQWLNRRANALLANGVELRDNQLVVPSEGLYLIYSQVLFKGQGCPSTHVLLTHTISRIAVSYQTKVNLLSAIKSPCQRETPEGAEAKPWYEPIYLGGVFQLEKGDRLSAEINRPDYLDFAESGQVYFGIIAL
T1 sequence (P02787 20-698): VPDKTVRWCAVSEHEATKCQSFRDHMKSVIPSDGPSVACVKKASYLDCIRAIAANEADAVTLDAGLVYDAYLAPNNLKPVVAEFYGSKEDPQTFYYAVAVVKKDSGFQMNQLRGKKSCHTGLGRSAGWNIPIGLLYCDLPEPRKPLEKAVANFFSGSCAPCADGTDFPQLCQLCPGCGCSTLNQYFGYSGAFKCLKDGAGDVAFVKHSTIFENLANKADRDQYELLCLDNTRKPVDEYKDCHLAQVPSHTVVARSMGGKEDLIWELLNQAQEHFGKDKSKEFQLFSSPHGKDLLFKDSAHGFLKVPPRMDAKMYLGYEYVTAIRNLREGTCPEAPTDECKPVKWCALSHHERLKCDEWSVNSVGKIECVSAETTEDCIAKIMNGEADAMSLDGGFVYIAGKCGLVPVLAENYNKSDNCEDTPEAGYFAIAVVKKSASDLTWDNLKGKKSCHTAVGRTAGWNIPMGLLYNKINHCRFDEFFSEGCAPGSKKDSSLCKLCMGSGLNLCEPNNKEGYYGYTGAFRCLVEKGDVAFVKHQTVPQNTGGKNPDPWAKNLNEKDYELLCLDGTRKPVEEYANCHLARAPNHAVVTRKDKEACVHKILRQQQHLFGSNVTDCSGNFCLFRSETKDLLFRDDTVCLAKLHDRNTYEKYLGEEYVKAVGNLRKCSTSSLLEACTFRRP
T2 sequence (P02787 20-698): as above

With AHKVVYQRQIRFAYNRYGSC [P6Y + H12F] the Kd [1] was 700 to 1300 nM.

NQYVPIFSQPEDPVQQEGSC [TRF102] was tested, and the dissociation rates [2] was 10^−2 to 10^−3 sec^−1.

FERSYLKMPWSFLQSRQGSC [D4S + P5Y + M7K] was tested, and the “Observed Kd Fold-Change Relative to Lead” value [3] was 11 ± 1.6, the “Observed Binding ΔG” value [3] was -6.63 ± 0.04 kcal/mol and the Kd [3] was 3 to 7 µM. For the same sequence, the “Predicted Binding ΔG” value [3] was -7.28 ± 0.26 kcal/mol.

For FERYPLMMPWKFLQSRQGSC [D4Y + S11K], the “Observed Kd Fold-Change Relative to Lead” value [3] was 17 ± 2.5, the “Observed Binding ΔG” value [3] was -6.67 ± 0.05 kcal/mol and the “Predicted Binding ΔG” value [3] was -6.67 ± 0.18 kcal/mol.

In the case of FERDYLMMPWSFLQSRQGSC [P5Y], the “Kd Fold-Change Relative to Lead” value [3] is reported as 2.7 ± 0.4, the “Binding ΔG” value [3] is reported as -5.79 ± 0.04 kcal/mol and the “Component Binding ΔG Contribution” value [3] is reported as -0.58 ± 0.08 kcal/mol. The “fold enhancement in SPR binding response relative to TNF1” value [3] was at least 15 fold.

With FERDPLMMPWKFLQSRQGSC [S11K] the “Kd Fold-Change Relative to Lead” value [3] was 3.9 ± 0.9, the “Binding ΔG” value [3] was -6.03 ± -.10 kcal/mol and the “Component Binding ΔG Contribution” value [3] was -0.82 ± 0.13 kcal/mol. For the same sequence, the “fold enhancement in SPR binding response relative to TNF1” value [3] was at least 15 fold.

With FERDYLMMPWKFLQSRQGSC [P5Y + S11K] the “Observed Kd Fold-Change Relative to Lead” value [3] was 6.6 ± 0.9, the “Observed Binding ΔG” value [3] was -6.63 ± 0.04 kcal/mol and the Kd [3] was 11 to 19 µM. For the same sequence, the “Predicted Binding ΔG” value [3] was -6.61 ± 0.17 kcal/mol.

With FERSYLKMPWKFLQSRQGSC [TNF1-opt] the “Observed Kd Fold-Change Relative to Lead” value [3] was 100 ± 22, the “Observed Binding ΔG” value [3] was -7.97 ± -0.11 kcal/mol and the “Predicted Binding ΔG” value [3] was -81.0 ± 0.29 kcal/mol.

With FERYPLKMPWSFLQSRQGSC [D4Y + M7K] the “Observed Kd Fold-Change Relative to Lead” value [3] was 9.4 ± 1.6, the “Observed Binding ΔG” value [3] was -6.54 ± 0.07 kcal/mol and the “Predicted Binding ΔG” value [3] was -6.66 ± 0.25 kcal/mol.

For FERDYLKMPWSFLQSRQGSC [P5Y + M7K], the “Observed Kd Fold-Change Relative to Lead” value [3] was 5.8 ± 0.8, the “Observed Binding ΔG” value [3] was -6.24 ± 0.04 kcal/mol and the Kd [3] was 11 to 25 µM. For the same sequence, the “Predicted Binding ΔG” value [3] was -6.51 ± 0.24 kcal/mol.

For FERDPLKMPWSFLQSRQGSC [M7K], the “Kd Fold-Change Relative to Lead” value [3] was 2.8 ± 1.0, the “Binding ΔG” value [3] was -5.93 ± -.20 kcal/mol and the “Component Binding ΔG Contribution” value [3] was -0.72 ± 0.22 kcal/mol. The “fold enhancement in SPR binding response relative to TNF1” value [3] was at least 15 fold.

With FERYPLMMPWSFLQSRQGSC [D4Y] the “Kd Fold-Change Relative to Lead” value [3] was 3.6 ± 0.6, the “Binding ΔG” value [3] was -5.95 ± 0.06 kcal/mol and the “Component Binding ΔG Contribution” value [3] was -0.74 ± 0.10 kcal/mol. For the same sequence, the “fold enhancement in SPR binding response relative to TNF1” value [3] was at least 15 fold.

With FRGWAHIFFGPHVIYRGGSC [TRF23] the “binding sites on transferrin (pairs applied in 1:1 mixtures)” value [4] was “bind distinct sites on transferrin”.

In the case of FERSYLMMPWKFLQSRQGSC [D4S + P5Y + S11K], the “Observed Kd Fold-Change Relative to Lead” value [3] is reported as 23 ± 3.2, the “Observed Binding ΔG” value [3] is reported as -7.03 ± 0.04 kcal/mol and the “Predicted Binding ΔG” value [3] is reported as -7.38 ± 0.19 kcal/mol.
